According to PMC4003280, “Structural basis for the Nanos-mediated recruitment of the CCR4–NOT complex and translational repression” (Genes & Development, 2014):
These are yes or no findings as the source states them, for the method shown. For some assays here: Binding seen in cells or lysates may run through a third protein. Some entries that bind do so weakly or less than the wild type. For some assays here: Where a sequence is shown, tags or fusion partners need not be part of it.

Chains of the proteins cited; added tags and fusions are not shown. Lines headed by an entry give the natural chain unless they say otherwise; changes in a name come on top. A line that says so, or that is headed by a name, gives the form on record, which may keep a tag or linker.
UniProt P60323: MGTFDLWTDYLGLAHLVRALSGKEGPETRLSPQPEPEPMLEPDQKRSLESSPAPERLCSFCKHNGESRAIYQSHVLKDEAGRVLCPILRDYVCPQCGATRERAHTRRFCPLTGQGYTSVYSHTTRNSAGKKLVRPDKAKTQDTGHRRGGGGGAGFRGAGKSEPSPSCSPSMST
V5-SBP-tagged Nanos3 Δ4–20 (P60323, form named): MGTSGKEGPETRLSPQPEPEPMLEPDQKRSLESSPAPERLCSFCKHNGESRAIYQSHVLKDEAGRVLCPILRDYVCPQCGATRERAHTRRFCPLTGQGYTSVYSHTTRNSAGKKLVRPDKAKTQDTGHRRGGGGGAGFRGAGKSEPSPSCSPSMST
UniProt P60321: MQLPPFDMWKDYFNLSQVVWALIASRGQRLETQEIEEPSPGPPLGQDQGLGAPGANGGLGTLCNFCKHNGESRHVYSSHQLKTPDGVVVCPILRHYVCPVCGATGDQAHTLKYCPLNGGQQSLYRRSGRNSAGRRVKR
V5-SBP-tagged Nanos2 Δ6–22 (P60321, form named): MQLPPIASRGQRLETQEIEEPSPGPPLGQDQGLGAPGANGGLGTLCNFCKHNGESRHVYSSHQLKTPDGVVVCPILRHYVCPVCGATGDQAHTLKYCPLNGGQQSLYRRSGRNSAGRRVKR
UniProt A5YKK6: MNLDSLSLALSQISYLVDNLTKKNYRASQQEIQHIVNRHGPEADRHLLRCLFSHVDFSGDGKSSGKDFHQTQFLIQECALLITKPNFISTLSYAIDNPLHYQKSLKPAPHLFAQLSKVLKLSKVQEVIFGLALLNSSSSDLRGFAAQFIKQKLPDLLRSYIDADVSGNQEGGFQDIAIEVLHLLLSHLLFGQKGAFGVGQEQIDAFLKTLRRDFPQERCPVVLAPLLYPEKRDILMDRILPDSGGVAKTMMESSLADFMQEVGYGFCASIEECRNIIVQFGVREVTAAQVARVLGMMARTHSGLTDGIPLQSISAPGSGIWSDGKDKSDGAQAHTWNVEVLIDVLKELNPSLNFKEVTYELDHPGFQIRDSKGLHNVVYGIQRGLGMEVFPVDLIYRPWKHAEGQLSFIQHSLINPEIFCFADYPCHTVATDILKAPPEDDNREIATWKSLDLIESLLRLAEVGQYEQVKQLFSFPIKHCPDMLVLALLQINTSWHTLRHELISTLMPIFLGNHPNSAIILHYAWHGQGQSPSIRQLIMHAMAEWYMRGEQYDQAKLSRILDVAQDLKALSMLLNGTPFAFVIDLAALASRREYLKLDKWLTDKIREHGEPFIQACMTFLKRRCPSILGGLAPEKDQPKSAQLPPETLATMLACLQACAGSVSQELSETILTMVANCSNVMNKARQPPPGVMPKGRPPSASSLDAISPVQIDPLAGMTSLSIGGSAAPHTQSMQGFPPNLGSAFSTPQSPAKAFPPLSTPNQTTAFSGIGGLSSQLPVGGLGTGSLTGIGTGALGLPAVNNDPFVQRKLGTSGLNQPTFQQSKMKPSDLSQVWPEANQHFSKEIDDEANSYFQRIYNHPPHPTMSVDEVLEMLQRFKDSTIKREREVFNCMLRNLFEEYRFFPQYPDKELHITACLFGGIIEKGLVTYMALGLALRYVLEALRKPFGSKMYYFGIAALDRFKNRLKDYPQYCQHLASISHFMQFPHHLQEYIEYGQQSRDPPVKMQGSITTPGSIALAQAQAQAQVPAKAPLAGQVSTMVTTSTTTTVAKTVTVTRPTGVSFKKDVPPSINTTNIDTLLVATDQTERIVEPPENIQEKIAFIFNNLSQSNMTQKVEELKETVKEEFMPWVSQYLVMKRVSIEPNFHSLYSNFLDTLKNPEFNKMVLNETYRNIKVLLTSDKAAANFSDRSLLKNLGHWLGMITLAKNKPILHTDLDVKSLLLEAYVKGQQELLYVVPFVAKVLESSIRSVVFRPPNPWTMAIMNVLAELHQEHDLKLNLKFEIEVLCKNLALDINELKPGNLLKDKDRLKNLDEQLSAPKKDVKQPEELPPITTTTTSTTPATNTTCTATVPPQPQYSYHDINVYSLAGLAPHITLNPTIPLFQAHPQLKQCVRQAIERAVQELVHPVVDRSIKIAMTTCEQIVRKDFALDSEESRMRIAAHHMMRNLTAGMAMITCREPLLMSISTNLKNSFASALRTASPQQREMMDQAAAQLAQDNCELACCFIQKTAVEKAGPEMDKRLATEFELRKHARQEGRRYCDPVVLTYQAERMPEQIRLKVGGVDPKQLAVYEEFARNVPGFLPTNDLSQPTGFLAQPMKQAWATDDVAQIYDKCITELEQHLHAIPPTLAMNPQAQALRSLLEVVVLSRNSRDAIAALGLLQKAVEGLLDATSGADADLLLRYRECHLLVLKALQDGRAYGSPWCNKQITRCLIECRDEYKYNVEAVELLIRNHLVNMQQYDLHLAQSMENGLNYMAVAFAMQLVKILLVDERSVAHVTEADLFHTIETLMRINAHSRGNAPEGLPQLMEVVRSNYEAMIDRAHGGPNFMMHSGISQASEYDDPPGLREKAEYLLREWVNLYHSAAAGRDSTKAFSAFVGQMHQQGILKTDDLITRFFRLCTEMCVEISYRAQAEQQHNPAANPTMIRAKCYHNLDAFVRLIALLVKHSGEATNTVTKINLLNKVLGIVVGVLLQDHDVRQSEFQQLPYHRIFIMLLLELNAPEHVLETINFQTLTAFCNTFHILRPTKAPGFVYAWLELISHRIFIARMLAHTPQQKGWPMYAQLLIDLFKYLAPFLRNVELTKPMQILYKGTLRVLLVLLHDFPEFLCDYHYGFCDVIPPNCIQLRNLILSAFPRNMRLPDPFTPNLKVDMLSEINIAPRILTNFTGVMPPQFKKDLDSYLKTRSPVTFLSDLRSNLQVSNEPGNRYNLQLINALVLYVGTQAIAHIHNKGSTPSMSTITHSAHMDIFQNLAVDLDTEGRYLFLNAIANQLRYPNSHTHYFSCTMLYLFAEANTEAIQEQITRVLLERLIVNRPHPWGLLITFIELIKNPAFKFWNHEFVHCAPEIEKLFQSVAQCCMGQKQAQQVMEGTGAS
UniProt Q9NZN8: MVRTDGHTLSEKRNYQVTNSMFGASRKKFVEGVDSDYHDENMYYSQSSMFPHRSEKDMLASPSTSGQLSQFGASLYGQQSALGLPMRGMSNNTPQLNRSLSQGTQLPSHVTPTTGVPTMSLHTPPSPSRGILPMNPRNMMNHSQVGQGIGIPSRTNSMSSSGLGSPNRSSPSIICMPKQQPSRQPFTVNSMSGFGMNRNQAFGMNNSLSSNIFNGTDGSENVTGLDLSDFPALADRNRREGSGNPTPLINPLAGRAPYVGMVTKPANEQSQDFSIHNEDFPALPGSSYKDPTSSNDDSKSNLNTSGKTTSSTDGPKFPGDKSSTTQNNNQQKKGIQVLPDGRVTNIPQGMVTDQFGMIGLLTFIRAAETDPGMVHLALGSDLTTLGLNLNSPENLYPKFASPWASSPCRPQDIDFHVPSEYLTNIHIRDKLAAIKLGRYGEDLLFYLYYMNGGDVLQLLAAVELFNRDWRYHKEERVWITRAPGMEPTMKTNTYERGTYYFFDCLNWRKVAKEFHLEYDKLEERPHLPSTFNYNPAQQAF
UniProt O75175: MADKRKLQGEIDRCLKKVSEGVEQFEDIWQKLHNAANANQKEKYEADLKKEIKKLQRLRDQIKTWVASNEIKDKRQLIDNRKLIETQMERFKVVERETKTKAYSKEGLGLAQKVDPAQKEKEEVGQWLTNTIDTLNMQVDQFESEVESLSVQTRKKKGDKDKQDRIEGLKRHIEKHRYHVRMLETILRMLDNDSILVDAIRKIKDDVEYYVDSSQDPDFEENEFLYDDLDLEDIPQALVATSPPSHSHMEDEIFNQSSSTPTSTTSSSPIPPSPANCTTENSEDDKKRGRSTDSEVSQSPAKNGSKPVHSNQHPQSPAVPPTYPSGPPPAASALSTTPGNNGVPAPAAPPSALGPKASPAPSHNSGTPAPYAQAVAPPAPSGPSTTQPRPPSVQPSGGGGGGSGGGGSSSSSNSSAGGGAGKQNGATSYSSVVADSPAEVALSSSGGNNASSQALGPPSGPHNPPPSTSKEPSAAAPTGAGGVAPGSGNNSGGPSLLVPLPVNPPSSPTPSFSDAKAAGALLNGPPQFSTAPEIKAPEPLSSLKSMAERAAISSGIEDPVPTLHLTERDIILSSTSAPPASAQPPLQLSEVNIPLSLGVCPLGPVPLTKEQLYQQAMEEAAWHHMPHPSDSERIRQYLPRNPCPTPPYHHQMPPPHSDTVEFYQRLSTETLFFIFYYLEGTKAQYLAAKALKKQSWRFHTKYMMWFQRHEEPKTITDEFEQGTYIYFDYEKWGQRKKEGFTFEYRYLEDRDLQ

How the values were obtained:
GST-Nanos3 NIM (human) [1] = target: T1, GST-Nanos3 NIM (human) (UniProt P60323); assay: pull-down; GST pull-down in vitro with recombinant proteins expressed in E. coli; GST-NIM as bait; both purified
T1 sequence: FDLWTDYLGLAHLVRAL

GST-Nanos2 NIM (human) [2] = target: T2, GST-Nanos2 NIM (human) (UniProt P60321); assay: as above
T2 sequence: FDMWKDYFNLSQVVWAL

GST-Nanos1 NIM (human) [3] = target: T3, GST-Nanos1 NIM (human) (UniProt Q8WY41); assay: as above
T3 sequence: FSSWNDYLGLATLITKA

[4] = target: V5-SBP-tagged Nanos3 (full length) (human) (UniProt P60323); assay: pull-down; SBP (streptavidin-binding peptide) pull-down from lysates of HEK293T cells expressing V5-SBP-tagged Nanos proteins; endogenous CNOT1 and CNOT3 detected by Western blotting
[5] = target: V5-SBP-tagged Nanos2 F6A (human) (UniProt P60321); assay: as above
[6] = target: V5-SBP-tagged Nanos3 Y10E (human) (UniProt P60323); assay: as above
[7] = target: T4, V5-SBP-tagged Nanos1 (full length) (human) (UniProt Q8WY41); assay: as above
T4 sequence: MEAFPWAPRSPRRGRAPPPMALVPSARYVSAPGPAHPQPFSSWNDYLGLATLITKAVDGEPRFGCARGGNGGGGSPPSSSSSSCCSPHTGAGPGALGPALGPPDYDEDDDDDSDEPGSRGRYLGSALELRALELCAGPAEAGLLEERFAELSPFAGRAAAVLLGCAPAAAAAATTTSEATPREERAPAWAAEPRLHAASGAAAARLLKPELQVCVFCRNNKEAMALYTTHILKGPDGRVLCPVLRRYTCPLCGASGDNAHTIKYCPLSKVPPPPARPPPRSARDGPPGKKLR

[8] = target: T5, V5-SBP-MBP-Nanos3 conserved motif (NIM) (human) (UniProt P60323); assay: as above
T5 sequence: FDLWTDYLGLAHLVRAL

[9] = target: T6, V5-SBP-tagged Nanos1 fragment 1–58 (human) (UniProt Q8WY41); assay: as above
T6 sequence: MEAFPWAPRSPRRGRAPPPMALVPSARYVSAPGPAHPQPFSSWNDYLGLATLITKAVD

[10] = target: T7, V5-SBP-MBP-Nanos2 conserved motif (NIM) (human) (UniProt P60321); assay: as above
T7 sequence: FDMWKDYFNLSQVVWAL

[11] = target: T8, V5-SBP-tagged Nanos1 Y46E (human) (UniProt Q8WY41); assay: as above
T8 sequence: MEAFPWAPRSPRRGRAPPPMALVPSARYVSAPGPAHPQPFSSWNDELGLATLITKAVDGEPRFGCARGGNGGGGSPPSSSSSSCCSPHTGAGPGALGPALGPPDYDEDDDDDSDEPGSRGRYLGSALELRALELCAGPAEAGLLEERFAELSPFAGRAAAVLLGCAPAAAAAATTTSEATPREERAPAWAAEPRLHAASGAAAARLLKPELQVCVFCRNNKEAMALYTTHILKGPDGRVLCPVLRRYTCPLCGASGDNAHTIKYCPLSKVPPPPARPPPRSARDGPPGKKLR

[12] = target: V5-SBP-tagged Nanos2 Y12E (human) (UniProt P60321); assay: as above
[13] = target: V5-SBP-tagged Nanos2 (full length) (human) (UniProt P60321); assay: as above
[14] = target: V5-SBP-tagged Nanos2 W9E (human) (UniProt P60321); assay: as above
[15] = target: V5-SBP-tagged Nanos3 Δ4–20 (human) (UniProt P60323); assay: as above
[16] = target: T9, V5-SBP-tagged Nanos1 F40A (human) (UniProt Q8WY41); assay: as above
T9 sequence: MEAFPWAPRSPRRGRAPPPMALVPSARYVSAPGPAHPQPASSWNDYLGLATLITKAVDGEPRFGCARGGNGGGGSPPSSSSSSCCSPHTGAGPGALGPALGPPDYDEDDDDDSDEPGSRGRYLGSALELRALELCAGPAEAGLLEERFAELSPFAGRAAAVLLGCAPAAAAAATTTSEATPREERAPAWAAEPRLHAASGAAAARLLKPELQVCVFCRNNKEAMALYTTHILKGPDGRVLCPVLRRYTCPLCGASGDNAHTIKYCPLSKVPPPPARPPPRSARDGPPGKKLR

[17] = target: V5-SBP-tagged Nanos2 Δ6–22 (human) (UniProt P60321); assay: as above
[18] = target: V5-SBP-tagged Nanos3 W7E (human) (UniProt P60323); assay: as above
[19] = target: T10, V5-SBP-tagged Nanos1 Δ40–56 (human) (UniProt Q8WY41); assay: as above
T10 sequence: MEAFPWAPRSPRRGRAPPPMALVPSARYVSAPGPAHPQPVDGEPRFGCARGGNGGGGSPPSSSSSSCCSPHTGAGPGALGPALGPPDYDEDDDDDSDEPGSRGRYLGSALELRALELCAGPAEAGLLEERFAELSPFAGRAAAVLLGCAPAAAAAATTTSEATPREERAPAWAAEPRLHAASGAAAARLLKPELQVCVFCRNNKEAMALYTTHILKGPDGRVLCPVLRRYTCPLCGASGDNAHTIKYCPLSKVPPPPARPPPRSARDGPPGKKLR

[20] = target: T11, V5-SBP-tagged Nanos1 W43E (human) (UniProt Q8WY41); assay: as above
T11 sequence: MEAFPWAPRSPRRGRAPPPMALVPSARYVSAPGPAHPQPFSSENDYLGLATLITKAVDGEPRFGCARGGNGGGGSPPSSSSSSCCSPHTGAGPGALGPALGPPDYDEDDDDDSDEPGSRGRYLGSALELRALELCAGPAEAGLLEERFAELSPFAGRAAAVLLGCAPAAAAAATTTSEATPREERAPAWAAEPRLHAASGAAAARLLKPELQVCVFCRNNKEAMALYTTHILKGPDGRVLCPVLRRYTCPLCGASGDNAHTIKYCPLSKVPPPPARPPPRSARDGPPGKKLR

[21] = target: T12, V5-SBP-MBP-Nanos1 conserved motif (NIM) (human) (UniProt Q8WY41); assay: as above
T12 sequence: FSSWNDYLGLATLITKA

[22] = target: V5-SBP-tagged Nanos3 F4A (human) (UniProt P60323); assay: as above
GST-Nanos3 NIM (human) [23] = target: T1, GST-Nanos3 NIM (human); assay: pull-down; GST pull-down with competitor: MBP-Nanos3 NIM (or its Y10E mutant) in 0.5-fold, onefold and fivefold molar excess relative to the GST-NIMs; NOT module as prey; both purified
GST-Nanos2 NIM (human) [24] = target: T2, GST-Nanos2 NIM (human); assay: as above
GST-Nanos1 NIM (human) [25] = target: T3, GST-Nanos1 NIM (human); assay: as above
[26] = target: recombinant NOT module (CNOT1 SHD with the CNOT2 and CNOT3 C-terminal domains) (human) (UniProt A5YKK6+Q9NZN8+O75175); assay: as above

Measured: binding

CNOT2–CNOT3 heterodimer (C-terminal domains) (from UniProt Q9NZN8 344-540; O75175 607-753) (complex)
no binding: GST-Nanos3 NIM (human) [1] | GST-Nanos2 NIM (human) [2] | GST-Nanos1 NIM (human) [3]

endogenous CNOT1 (from UniProt A5YKK6 1-2376)
binds: [4] | [7] | [8] | [9] | [10] | [12] | [13]
not listed: GST-Nanos3 NIM (human) [1] | GST-Nanos2 NIM (human) [2] | GST-Nanos1 NIM (human) [3] | GST-Nanos3 NIM (human) [23] | GST-Nanos2 NIM (human) [24] | GST-Nanos1 NIM (human) [25] | [26]
no binding: all other assays above

endogenous CNOT3 (from UniProt O75175 1-753)
no binding: [5] | [6] | [11] | [14] | [15] | [16] | [17] | [18] | [19] | [20] | [21] | [22]

recombinant NOT module (CNOT1 SHD with the CNOT2 and CNOT3 C-terminal domains) (from UniProt A5YKK6 1833-2361; Q9NZN8 344-540; O75175 607-753) (complex)
binds: GST-Nanos3 NIM (human) [1] | GST-Nanos2 NIM (human) [2] | GST-Nanos1 NIM (human) [3] | GST-Nanos3 NIM (human) [23] | GST-Nanos2 NIM (human) [24] | GST-Nanos1 NIM (human) [25]

recombinant NOT module containing CNOT1 SHD F2353D (from UniProt A5YKK6 1833-2361; Q9NZN8 344-540; O75175 607-753) (complex)
binds weakly: GST-Nanos3 NIM (human) [1] | GST-Nanos2 NIM (human) [2]
no binding: GST-Nanos1 NIM (human) [3]

recombinant NOT module containing CNOT1 SHD I2330E (from UniProt A5YKK6 1833-2361; Q9NZN8 344-540; O75175 607-753) (complex)
binds weakly: GST-Nanos3 NIM (human) [1] | GST-Nanos2 NIM (human) [2]
no binding: GST-Nanos1 NIM (human) [3]

B1: GST-Nanos3 NIM (domain or fragment, human, UniProt P60323 4-20, looked up)
chain: FDLWTDYLGLAHLVRAL
notes: Nanos3, human, NIM, residues 4-20; also called conserved motif of Nanos3 fused to glutathione S-transferase; GST-tagged Nanos3 NIM; source: E. coli BL21 (DE3) Star, purified (described in the Supplemental Material)
binds: [26]
